# Source: the supplement of paper PMC12645437, “Orthogonal IMiD-Degron Pairs Induce Selective Protein Degradation in Cells” (ACS Chemical Biology, 2025)
# The list shows a part of the results.
# Biological target: no compound (DMSO)
# Experiment: log2 fold change of degron read counts, EGFP-low vs EGFP+ sorted cells; higher = lower degron-EGFP level without compound (poor expression or instability)
# Settings: compound: DMSO control; 18 h
# 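Also: jurkat cells carrying a lentiviral library of mutant zinc finger degrons fused to EGFP plus mCherry, mCherry+ cells FACS sorted, degron abundance counted by next-generation sequencing.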
row,Sequence,log2 fold change of degron read counts
1,LECPICGFACTQKGNLLRHIKL,0.314
2,FICNQCGHCFTQKGNLLRHIKL,-0.239
3,LQCPICGFTCTQKGNLLRHIKL,0.59
4,FGCSVCGHSFTQKGNLLRHIKL,-0.455
5,FMCNQCGRWFTQKGNLLRHIKL,0.67
6,FMCEQCGANFTQKGNLLRHIKL,-1.5
7,FQCEICGRIFTQKGNLLRHIKL,-1.72
8,FLCDQCGAKFTQKGNLLRHIKL,-1.47
9,FICEVCGAQFTQKGNLLRHIKL,-2.31
10,FVCEQCGAMFTQKGNLLRHIKL,-1.09
11,FVCEICGAKFTQKGNLLRHIKL,-2.13
12,FQCDICGASFTQKGNLLRHIKL,-1.92
13,FRCNICGATFTQKGNLLRHIKL,-0.588
14,FACEVCGACFTQKGNLLRHIKL,-1.75
15,FRCPQCGAAFTQKGNLLRHIKL,-0.276
16,FACNQCGHVFTQKGNLLRHIKL,-0.216

row,Sequence,log2 fold change of degron read counts
1,FACSVCGHLFTQKGNLLRHIKL,0.406
2,FNCPICGRDFTQKGNLLRHIKL,-0.391
3,FKCNICGAGFTQKGNLLRHIKL,-0.93
4,FYCNQCGAVFTQKGNLLRHIKL,0.289
5,FLCPICGRIFTQKGNLLRHIKL,1.02
6,FKCDICGAKFTQKGNLLRHIKL,-1.85
7,FQCEICGRNFTQKGNLLRHIKL,-0.946
8,FVCEICGHLFTQKGNLLRHIKL,-0.789
9,FNCPICGRAFTQKGNLLRHIKL,-1.05
10,LDCEICGFNCTQKGNLLRHIKL,-0.125
11,FSCPVCGAHFTQKGNLLRHIKL,-0.254
12,FECPQCGARFTQKGNLLRHIKL,-0.0938
13,FQCEICGRAFTQKGNLLRHIKL,-1.39
14,FNCEICGHFFTQKGNLLRHIKL,0.0129
15,FHCNVCGAKFTQKGNLLRHIKL,-0.413
16,FGCNQCGAQFTQKGNLLRHIKL,-0.535
